# In paper PMC4939424:
# These are yes or no findings as the source states them, for the method shown. Binding seen in cells or lysates may run through a third protein. Some entries that bind do so weakly or less than the wild type. Sequences can lack the tags named with a protein.
# T1: FLAG-tagged PI3KAP/XB130 deletion mutant, amino acid residues 1-675 (mouse) (UniProt Q5DTU0)
# T1 sequence: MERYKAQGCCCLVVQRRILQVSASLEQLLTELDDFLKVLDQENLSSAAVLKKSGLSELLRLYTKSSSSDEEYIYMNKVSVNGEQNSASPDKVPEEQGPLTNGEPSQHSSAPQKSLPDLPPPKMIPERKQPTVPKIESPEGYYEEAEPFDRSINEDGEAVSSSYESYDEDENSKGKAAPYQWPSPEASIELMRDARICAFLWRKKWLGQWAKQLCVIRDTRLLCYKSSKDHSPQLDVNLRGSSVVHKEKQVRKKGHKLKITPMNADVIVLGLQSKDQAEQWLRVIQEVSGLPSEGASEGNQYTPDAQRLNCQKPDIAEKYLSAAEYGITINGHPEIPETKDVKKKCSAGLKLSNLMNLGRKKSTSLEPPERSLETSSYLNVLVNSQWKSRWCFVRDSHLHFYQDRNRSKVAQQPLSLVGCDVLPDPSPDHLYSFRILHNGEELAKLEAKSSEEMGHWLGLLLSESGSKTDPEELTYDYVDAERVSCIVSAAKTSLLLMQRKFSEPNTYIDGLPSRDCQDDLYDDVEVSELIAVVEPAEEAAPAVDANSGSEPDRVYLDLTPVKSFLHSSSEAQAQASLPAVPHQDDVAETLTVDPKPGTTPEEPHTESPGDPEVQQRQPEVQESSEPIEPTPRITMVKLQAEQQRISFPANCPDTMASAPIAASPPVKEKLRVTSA
# T2: FLAG-tagged PI3KAP/XB130 deletion mutant, amino acid residues 1-185 (mouse) (UniProt Q5DTU0)
# T2 sequence: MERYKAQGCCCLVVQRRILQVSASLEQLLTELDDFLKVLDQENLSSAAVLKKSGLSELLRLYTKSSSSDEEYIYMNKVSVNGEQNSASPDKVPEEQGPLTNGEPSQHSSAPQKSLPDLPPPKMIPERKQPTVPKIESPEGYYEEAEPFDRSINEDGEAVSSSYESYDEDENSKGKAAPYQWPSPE
# T3: FLAG-tagged PI3KAP/XB130 deletion mutant, amino acid residues 186-843 (mouse) (UniProt Q5DTU0)
# T3 sequence: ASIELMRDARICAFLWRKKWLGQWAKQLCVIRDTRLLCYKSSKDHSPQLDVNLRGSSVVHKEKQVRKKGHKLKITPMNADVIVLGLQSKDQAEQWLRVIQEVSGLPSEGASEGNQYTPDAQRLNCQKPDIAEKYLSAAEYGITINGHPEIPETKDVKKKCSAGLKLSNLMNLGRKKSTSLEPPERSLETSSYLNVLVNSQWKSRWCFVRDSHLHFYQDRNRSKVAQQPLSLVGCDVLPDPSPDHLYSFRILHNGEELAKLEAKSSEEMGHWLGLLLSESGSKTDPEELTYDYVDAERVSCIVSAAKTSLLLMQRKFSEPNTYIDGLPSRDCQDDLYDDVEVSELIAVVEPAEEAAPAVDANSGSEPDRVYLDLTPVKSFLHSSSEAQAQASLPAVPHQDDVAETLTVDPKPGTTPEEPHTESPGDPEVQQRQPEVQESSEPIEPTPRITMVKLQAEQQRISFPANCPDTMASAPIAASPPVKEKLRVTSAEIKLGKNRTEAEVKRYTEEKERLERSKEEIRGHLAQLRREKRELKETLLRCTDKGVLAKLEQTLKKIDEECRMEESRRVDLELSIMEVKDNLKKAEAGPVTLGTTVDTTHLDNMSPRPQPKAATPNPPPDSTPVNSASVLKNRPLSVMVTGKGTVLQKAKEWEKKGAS
# T4: FLAG-tagged PI3KAP/XB130 deletion mutant, amino acid residues 511-843 (mouse) (UniProt Q5DTU0)
# T4 sequence: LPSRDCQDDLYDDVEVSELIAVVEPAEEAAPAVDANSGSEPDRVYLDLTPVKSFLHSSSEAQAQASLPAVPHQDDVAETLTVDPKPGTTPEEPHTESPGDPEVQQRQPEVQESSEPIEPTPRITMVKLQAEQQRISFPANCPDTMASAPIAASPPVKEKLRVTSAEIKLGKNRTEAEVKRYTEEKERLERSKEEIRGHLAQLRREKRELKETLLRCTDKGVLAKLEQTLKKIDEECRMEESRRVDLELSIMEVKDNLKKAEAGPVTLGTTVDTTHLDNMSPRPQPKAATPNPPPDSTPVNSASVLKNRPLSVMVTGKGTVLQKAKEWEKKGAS
# Key:
# Assay in all cases: co-IP; GFP-PI3KAP/XB130 co-transfected with full-length or deletion mutants of FLAG-tagged PI3KAP/XB130 into HEK293T cells; lysates immunoprecipitated with anti-FLAG M2 agarose, immunoblotting
# [1] = target: T1, FLAG-tagged PI3KAP/XB130 deletion mutant, amino acid residues 1-675 (mouse)
# [2] = target: T2, FLAG-tagged PI3KAP/XB130 deletion mutant, amino acid residues 1-185 (mouse)
# [3] = target: T3, FLAG-tagged PI3KAP/XB130 deletion mutant, amino acid residues 186-843 (mouse)
# [4] = target: T4, FLAG-tagged PI3KAP/XB130 deletion mutant, amino acid residues 511-843 (mouse)
binder,measurement,setting,value
"GFP-fused PI3KAP/XB130 (protein, UniProt Q5DTU0-2 1-843) MERYKAQGCCCLVVQRRILQVSASLEQLLTELDDFLKVLDQENLSSAAVLKKSGLSELLRLYTKSSSSDEEYIYMNKVSVNGEQNSASPDKVPEEQGPLTNGEPSQHSSAPQKSLPDLPPPKMIPERKQPTVPKIESPEGYYEEAEPFDRSINEDGEAVSSSYESYDEDENSKGKAAPYQWPSPEASIELMRDARICAFLWRKKWLGQWAKQLCVIRDTRLLCYKSSKDHSPQLDVNLRGSSVVHKEKQVRKKGHKLKITPMNADVIVLGLQSKDQAEQWLRVIQEVSGLPSEGASEGNQYTPDAQRLNCQKPDIAEKYLSAAEYGITINGHPEIPETKDVKKKCSAGLKLSNLMNLGRKKSTSLEPPERSLETSSYLNVLVNSQWKSRWCFVRDSHLHFYQDRNRSKVAQQPLSLVGCDVLPDPSPDHLYSFRILHNGEELAKLEAKSSEEMGHWLGLLLSESGSKTDPEELTYDYVDAERVSCIVSAAKTSLLLMQRKFSEPNTYIDGLPSRDCQDDLYDDVEVSELIAVVEPAEEAAPAVDANSGSEPDRVYLDLTPVKSFLHSSSEAQAQASLPAVPHQDDVAETLTVDPKPGTTPEEPHTESPGDPEVQQRQPEVQESSEPIEPTPRITMVKLQAEQQRISFPANCPDTMASAPIAASPPVKEKLRVTSAEIKLGKNRTEAEVKRYTEEKERLERSKEEIRGHLAQLRREKRELKETLLRCTDKGVLAKLEQTLKKIDEECRMEESRRVDLELSIMEVKDNLKKAEAGPVTLGTTVDTTHLDNMSPRPQPKAATPNPPPDSTPVNSASVLKNRPLSVMVTGKGTVLQKAKEWEKKGAS",binding,[1],binds
same,binding,[2],binds
same,binding,[3],no binding
same,binding,[4],no binding
